From PubChem BioAssay AID485281 (National Center for Advancing Translational Sciences (NCATS), 2010)
Out of some 350,000 compounds screened, about 260 (0.074%) were called active. Inconclusive means that the source gave no clear call. Such entries were picked first, then a sample of the others. Calls come from the whole dose curve; as a rule, active = well fitted inhibition curve with a large enough effect; inconclusive = small, poorly fitted or top-dose-only effect; inactive = no such curve, though single readings can be large or run the other way. Potencies of inconclusive entries are doubtful fits and often do not repeat.
% is set by controls: 0 for no effect and ±100 for the full control effect; potency is the fitted concentration of half-maximal effect; tags give direction and shape of the fitted curve.
Note: nearly all actives have a fitted effect of over 20% in size.

These compounds were tested against Ferritin light chain (Equus caballus) (UniProt P02791) (assay: qHTS Assay for Identification of Novel General Anesthetics). Settings: apoferritin/1-aminoanthracene competitive binding, fluorescence; activity change, negative = displacement: at 77.5 µM (top of the series).
UniProt P02791, sequence (P02791 whole entry, looked up): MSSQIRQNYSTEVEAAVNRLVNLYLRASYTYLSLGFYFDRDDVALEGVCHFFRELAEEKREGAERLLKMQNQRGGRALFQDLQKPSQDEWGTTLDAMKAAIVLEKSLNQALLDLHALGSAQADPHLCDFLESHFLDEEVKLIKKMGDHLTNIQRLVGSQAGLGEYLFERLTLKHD
Outline: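 In PBS, apoferritin at 10 uM is loaded with 1-AMA from a 50% saturated solution. After 10 min of compound exposure at ambient temperature, reduced 535 nm fluorescence indicates probe displacement.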
With `O=C(NCc1cccs1)C1CCN(S(=O)(=O)c2ccc(Br)s2)CC1` the “activity change, negative = displacement” value was inactive: -10.7%. `O=C(CCN1CCN(c2ccccc2F)CC1)Nc1ccccc1F` was tested, and the “activity change, negative = displacement” value was inactive: -10.3%. With `Cc1ccc(SCc2cn3c(C)csc3n2)cc1` the Potency was inconclusive: 35.5 µM [inhibitor, single point]. `CCOc1ccccc1-c1nc(C(N)=O)c2[nH]c(=O)n(-c3ccc(F)cc3)c2n1` was tested, and the “activity change, negative = displacement” value was inactive: -8.7%. `O=C(NCc1ccc2c(c1)OCO2)c1ccc(COc2cccc(Cl)c2)o1` was tested, and the Potency was inconclusive: 5.62 µM [inhibitor, partial curve]. In the case of `Clc1ccc2nc(-c3ccc(Br)s3)cn2c1`, the “activity change, negative = displacement” value is reported as inactive: -12.7%. For `COc1ccccc1-n1c(=O)c(C#N)c(-c2ccc([N+](=O)[O-])cc2)c2cc(C(=O)c3cc(F)ccc3O)cnc21`, the Potency was inconclusive: 8.91 µM [inhibitor, partial curve]. `CCOC(=O)c1nc(NCCc2ccccc2)sc1C` was tested, and the Potency was inconclusive: 28.2 µM [inhibitor, partial curve]. In the case of `O=Cc1ccc(OCCCOc2cccc3cccnc23)cc1`, the Potency is reported as inconclusive: 17.8 µM [inhibitor, partial curve]. With `CCN(CC)C(=O)COC(=O)c1cc(-c2ccco2)nc2ccccc12` the Potency was inconclusive: 25.1 µM [inhibitor, single point]. For `Cc1cc(C=O)c(C)n1-c1ccc(NC2CCCCC2)c([N+](=O)[O-])c1`, the Potency was inconclusive: 39.8 µM [inhibitor, partial curve]. For `CCCCc1c(C)[nH]c(=S)[nH]c1=O`, the “activity change, negative = displacement” value was inactive: 2.16%. In the case of `COc1cccc2cc(C(=O)CC3(O)C(=O)N(Cc4ccccc4)c4ccccc43)c(=O)oc12` (stereo not given), the “activity change, negative = displacement” value is reported as inactive: -7.05%. With `Cc1cccc(N2CCN(C(=O)COc3ccc4ccc(=O)oc4c3)CC2)c1C` the Potency was inconclusive: 50.1 µM [inhibitor, single point]. `CCOC(CNC(=O)c1cccn2c(=O)c3cc(Cl)ccc3nc12)OCC` was tested, and the Potency was inconclusive: 6.31 µM [inhibitor, full curve]. With `Cc1c(Br)cccc1NC(=O)c1sccc1-n1cccc1` the Potency was inconclusive: 28.2 µM [inhibitor, partial curve]. For `CCc1ccc(C2N=C(N)Nc3nc4ccccc4n32)cc1` (stereo not given), the Potency was inconclusive: 7.08 µM [inhibitor, partial curve]. With `CCc1cccc2c(C(=O)CSc3nnc(-c4ccncc4)n3C)c[nH]c12` the Potency was inconclusive: 25.1 µM [inhibitor, partial curve]. For `CCCC1C2C(=O)N(c3ccccc3)C(=O)C2ON1c1ccccc1` (stereo not given), the Potency was inconclusive: 44.7 µM [inhibitor, single point]. In the case of `O=C(CSc1nc2ccccc2o1)Nc1ccccc1N1CCOCC1`, the Potency is reported as inconclusive: 31.6 µM [inhibitor, single point].
